# Data published in PubChem BioAssay AID894 (National Center for Advancing Translational Sciences (NCATS), 2007).
# Several values for one entry are separate records, joined by “and”; a condition that tells them apart may be missing. Equal values may be shown once. About 6,500 (4.3%) of roughly 150,000 compounds were called active. The inconclusive results got no clear call from the source; some entries with a clear call stand among them for comparison. Calls follow the shape of the dose curve; as a rule, active = well fitted inhibition curve with a large enough effect (not every such curve was filed as active); inconclusive = small, poorly fitted or top-dose-only effect, or another doubt; inactive = no such curve, though single readings can be large or run the other way. No potency is given beside an inconclusive call; the fits are too rough.
# Biological target: 15-hydroxyprostaglandin dehydrogenase [NAD(+)] (Homo sapiens) (UniProt P15428)
# Experiment: qHTS Assay for Inhibitors of HPGD (15-Hydroxyprostaglandin Dehydrogenase)
# Settings: purified HPGD, NADH fluorescence kinetic, PGE2 substrate; activity change, negative = inhibition: active compounds read low
# Method in brief: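 NADH formation kinetics: reaction with 30 uM PGE2 and 1 mM NAD+ (final), 20 nM enzyme, Tris-HCl pH 8 with Tween 20, after 15 min compound preincubation at room temperature. Fluorescence change, last versus first of five reads.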
# % is scaled to controls: 0 for no effect and ±100 for the full control effect; potency is read from the fitted curve at half-maximal effect; tags tell the direction and shape of the fitted curve.
# Chain of UniProt P15428 (P15428 whole entry, looked up): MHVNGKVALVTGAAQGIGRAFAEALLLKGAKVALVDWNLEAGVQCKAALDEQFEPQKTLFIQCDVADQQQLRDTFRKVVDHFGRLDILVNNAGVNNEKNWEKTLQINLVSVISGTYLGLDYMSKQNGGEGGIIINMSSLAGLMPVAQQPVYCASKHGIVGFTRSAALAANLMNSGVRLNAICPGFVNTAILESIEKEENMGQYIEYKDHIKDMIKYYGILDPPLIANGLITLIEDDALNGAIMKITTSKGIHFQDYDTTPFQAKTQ
Compound,Potency,"activity change, negative = inhibition"
Cc1cc(NS(=O)(=O)N(C)C)ccc1C(C)C,active: 15.8 µM,–
CCN(CC)CCN1C(=O)C(=O)/C(=C(/O)c2cnn(-c3ccccc3)c2C)C1c1cccnc1 (stereo unspecified),–,inactive: -10.9%
COc1c2c(cc3oc(C)cc(=O)c13)OC(C(C)(C)OC1OC(CO)C(O)C(O)C1O)C2 (stereo unspecified),"inconclusive [inhibitor, partial curve]",–
Cc1sc2ncnc(OCC(=O)Nc3ccc4c(c3)OCCO4)c2c1C,–,inactive: -21.9%
NC(=O)c1c(NC(=O)CN2C(=O)CCC2=O)sc2c1CCCCC2,"inconclusive [inhibitor, single point]",–
CCCCC(=O)NC(=S)NNS(=O)(=O)c1ccccc1,active: 20 µM,–
COc1ccc2c(-c3ccccc3)cc(=O)[nH]c2c1,"inconclusive [inhibitor, partial curve]",–
O=C(OCC#CCSc1nnc(-c2ccncc2)o1)c1sc2ccccc2c1Cl,active: 20 µM,–
CCc1ccc2c(c1)C1(NN=C(c3cccc4ccccc34)S1)C(=O)N2 (stereo unspecified),"inconclusive [inhibitor, partial curve, poor fit]",–
Cc1ccc(S(=O)(=O)c2c(N)n(CCN3CCOCC3)c3nc4ccccc4nc23)cc1C,"inconclusive [inhibitor, partial curve]",–
CC(=O)c1cn(CC(=O)Nc2ccc(C)cc2C)c2ccccc12,–,inactive: -14.6%
Cc1ccc(S(=O)(=O)Nc2nc3ccccc3nc2NCc2ccco2)cc1C,"inconclusive [inhibitor, single point]",–
CN(c1ccc(C(=O)NCc2cccnc2)cc1)S(C)(=O)=O,–,inactive: -7.74%
CCOc1ccccc1NC(=O)CN(C)S(=O)(=O)c1ccc(OC)c(C)c1,active: 15.8 µM,–
CCn1cc(CNC(=O)CSc2nc(-c3ccc(OC)c(OC)c3)cc(C(F)(F)F)n2)c(C)n1,"inconclusive [inhibitor, partial curve]",–
O=C(c1noc2c1CCCC2)N1CCCCC1,"inconclusive [inhibitor, single point]",–
CC(CCc1nc2ccccc2s1)(c1ccc(O)cc1)c1ccc(O)cc1,"inconclusive [inhibitor, single point]",–
O=C1CC(c2ccco2)CC(O)=C1C=Nc1cc(Cl)ccc1Cl (stereo unspecified),–,inactive: -19.4%
O=C(NN1C(=O)/C(=C/c2cccnc2)SC1=S)C(c1ccccc1)c1ccccc1,–,inactive: -4.37%
CC1CCCN(S(=O)(=O)c2cccc(-c3cn4cccnc4n3)c2)C1 (stereo unspecified),"inconclusive [inhibitor, partial curve]",–
O=C(Nc1ccc2nn(-c3ccccc3)nc2c1)c1cccs1,"inconclusive [inhibitor, partial curve]",–
O=C1NC2(CCc3ccccc32)C(=O)N1CCOc1ccc(Cl)cc1 (stereo unspecified),"inconclusive [inhibitor, partial curve, poor fit]",–

Compound,Potency,"activity change, negative = inhibition"
Cc1csc(-c2nc3ccccc3n2C)n1,"inconclusive [inhibitor, partial curve]",–
c1ccc(-c2cnc(CSc3ncnc4sccc34)o2)cc1,active: 3.16 µM,–
CCOC(=O)c1sc(-c2ccccc2)cc1NC(=O)Nc1ccccc1,"inconclusive [inhibitor, partial curve]",–
O=S(=O)(/N=C(/Sc1ccccc1)c1ccccc1)c1ccccc1,"inconclusive [inhibitor, single point]",–
Nc1ccc(-c2nc3c(Cl)c(N)ccc3[nH]2)cc1,"inconclusive [inhibitor, partial curve]",–
CCOC(=O)c1ccc(NC(=O)c2ccccc2[N+](=O)[O-])cc1,–,inactive: -4.9%
O=S(=O)(c1ccc2nc(-c3ccco3)c(-c3ccco3)nc2c1)N1CCOCC1,"inconclusive [inhibitor, partial curve]",–
CC(C)(C)OC(=O)N1CCC(c2c(C(=O)O)cnn2-c2ccc(Cl)cc2)CC1,"inconclusive [inhibitor, partial curve]",–
CCC(C)NC(=O)c1c(N)n(/N=C/c2cccs2)c2nc3ccccc3nc12 (stereo unspecified),"inconclusive [inhibitor, full curve]",–
O=C1c2ccccc2C(=O)N1OS(=O)(=O)c1ccccc1,"inconclusive [inhibitor, partial curve]",–
Cc1noc(/C=C/N(C)C)c1S(=O)(=O)NC1CCCCC1,–,inactive: -16.1%
CC(C)Cc1nc(N2CCOCC2)c(C#N)c2c1CCC2,"inconclusive [inhibitor, partial curve]",–
COC(=O)C1(C(=O)OC)CC2=C[C@H](CC2=O)Cc2ccccc2[C@@H]1C[N+](=O)[O-],–,inactive: -7.16% and inactive: -5.55%
OCc1cc(C(O)CNCCCCCCOCCCCc2ccccc2)ccc1O (stereo unspecified),"inconclusive [inhibitor, partial curve]",–
Cc1ccc(-c2onc3ccc(C=O)cc23)cc1,"inconclusive [inhibitor, partial curve]",–
COC(=O)N1C(c2ccccc2)=Cc2ccccc2C1C1(C(=O)OC)CCCC1=O (stereo unspecified),–,inactive: -2.68% and inactive: -7%
CCCCC(=O)Nc1nn(CC(C)C)c2nc3ccccc3cc12,"inconclusive [inhibitor, single point]",–
CCOC(=O)c1sc(NCC2CCCO2)nc1C (stereo unspecified),active: 12.6 µM,–
CCC(=O)N(Cc1ccc(C)cc1)Cc1cc2cc3c(cc2[nH]c1=O)OCO3,"inconclusive [inhibitor, partial curve]",–
Cc1ccc(C(=O)/C=C/c2c[nH]c3ccccc23)cc1,"inconclusive [inhibitor, partial curve]",–
O=C(O)c1cc2c(cc1S(=O)(=O)O)[C@H]1[C@@H](C3[C@H]2[C@@]2(Cl)C(Cl)=C(Cl)C3(Cl)C2(Cl)Cl)[C@]2(Cl)C(Cl)=C(Cl)C1(Cl)C2(Cl)Cl (stereo partly specified),"inconclusive [inhibitor, partial curve, poor fit]",–
COc1ccc(/C=C/C(=O)NC(=S)NN2CCCCC2c2cccnc2)cc1OC (stereo unspecified),"inconclusive [inhibitor, partial curve]",–

Compound,Potency,"activity change, negative = inhibition"
FC(F)(F)c1ccccc1-c1nc(Nc2ccncc2)c2ccccc2n1,"inconclusive [inhibitor, single point]",–
CCN(CC)COC(=S)S,active: 3.16 µM,–
Cc1sc2c(c1C)c(=O)nc1n2Cc2ccccc2-1,"inconclusive [inhibitor, partial curve]",–
COc1ccc(OC)c(NC(=O)[C@@H]2CCCN2C(=O)c2cccs2)c1,"inconclusive [inhibitor, single point]",–
NCCC[C@@H](CC(=O)N[C@@H]1CCNC[C@H]1C(=O)N[C@H](CC(=O)N[C@@H](CCC(=O)O)CC(=O)O)Cc1ccccc1)NC(=O)C[C@H](CO)NC(=O)[C@@H]1CNCC[C@H]1N,–,inactive: -7.76%
CCCCOc1ccc(Nc2nc(C)cc(C)c2C#N)cc1,"inconclusive [inhibitor, partial curve]",–
Cc1c(C)c2ccc(OCC(=O)N(C)C)c(C)c2oc1=O,"inconclusive [inhibitor, partial curve]",–
COc1ccc(-c2nc(C#N)c(N3CC(C)OC(C)C3)o2)cc1OC (stereo unspecified),"inconclusive [inhibitor, partial curve]",–
CCc1nnc(NS(=O)(=O)c2ccc(NC(=S)NC(=O)/C=C/c3ccc(OC)cc3)cc2)s1,"inconclusive [inhibitor, partial curve]",–
O=C(CSc1ccc(-c2ccccc2)nn1)c1ccccc1,"inconclusive [inhibitor, partial curve, poor fit]",–
CC1CCCc2sc3nc(NCc4ccco4)n4ncnc4c3c21 (stereo unspecified),"inconclusive [inhibitor, partial curve]",–
COc1cccc(-c2nnc(-c3ccc(C)o3)o2)c1,"inconclusive [inhibitor, partial curve]",–
Cc1ccccc1-c1n[nH]c(=S)n1/N=C/c1c(C)nn(-c2ccccc2)c1C,active: 3.55 µM,–
COc1ccc(C(=O)Nc2nc3ccc4nc(C)sc4c3s2)cc1,"inconclusive [inhibitor, partial curve]",–
Cc1[nH]n(-c2ccccc2)c(=O)c1C=Nc1ccc2[nH]c(=O)[nH]c2c1,–,inactive: -10.3%
COc1ccc(CNC(=O)c2ccc(NC(=O)CC3SC(N4CCCCC4)=NC3=O)cc2)cc1 (stereo unspecified),"inconclusive [inhibitor, single point]",–
O=c1oc2cc(O)ccc2c2oc3cc(O)ccc3c12,"inconclusive [inhibitor, partial curve]",–
Nc1c2c(nc3ccccc13)N(c1ccccc1)CC2,"inconclusive [inhibitor, partial curve]",–
CC(C)c1nc(NCC2CCCO2)c(C#N)c2c1COC(C)(C)C2 (stereo unspecified),"inconclusive [inhibitor, partial curve]",–
O=C(COC(=O)CNC(=O)c1ccccc1)Nc1nc(-c2ccccc2)cs1,–,inactive: -2.06%
Cc1ccc(S(=O)(=O)Oc2ccc(/C=C(/NC(=O)c3ccccc3)C(=O)Nc3ccccc3)cc2)cc1,"inconclusive [inhibitor, partial curve]",–
COc1ccc2c(c1OC)C(=O)N(c1nccs1)C2,"inconclusive [inhibitor, partial curve]",–
